Test results as given in the supplement of paper PMC7826260.
The other results are listed elsewhere or left out. One pool of 16,384 single-stranded DNAs met each Rep nickase domain in vitro (3 µM enzyme, 1 h, 37 °C); shown is the middle of each 90-letter strand. Values are log2 of uncut reads against the no-enzyme pool; uncut sequences lie near 0, cut ones below; no hit call is given. Counts are relative to all reads, so uncut sequences can rise above 0 when many others are cut.

Tests used:
Assay in all cases: uncleaved DNA left, log2 of reads against the no-enzyme library (log2 ratio); higher = less cleavage (more negative = more Rep cleavage of the k-mer); sequences stand for … in CTCGTCCG…ACCGGAGA
[1] = system: T1, Rep nickase domain of Muscovy duck circovirus
T1 sequence (residues 1-111 of Rep, tag left off): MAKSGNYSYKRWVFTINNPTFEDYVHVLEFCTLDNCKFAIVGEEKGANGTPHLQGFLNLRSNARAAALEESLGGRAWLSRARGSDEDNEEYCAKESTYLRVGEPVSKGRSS
Method: (§1)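 A pool of 90-nt single-stranded DNAs with seven random bases just before the constant AC of the nick site (name = the seven bases) was cut by 3 µM recombinant His6-SUMO-tagged Rep nickase domain (300 nM DNA, 50 mM HEPES pH 8.0, 50 mM NaCl, 1 mM MnCl2, 1 h, 37 °C, three replicates). Uncut DNA was amplified and sequenced.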

[2] = system: T2, Rep nickase domain of banana bunchy top virus
T2 sequence (residues 1-94 of Rep, tag left off): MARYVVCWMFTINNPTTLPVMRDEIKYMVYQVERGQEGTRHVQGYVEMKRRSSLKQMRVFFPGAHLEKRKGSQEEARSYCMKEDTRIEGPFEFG
Method: as §1

[3] = system: T3, Rep nickase domain of cabbage leaf curl virus
T3 sequence (residues 1-116 of Rep, tag left off): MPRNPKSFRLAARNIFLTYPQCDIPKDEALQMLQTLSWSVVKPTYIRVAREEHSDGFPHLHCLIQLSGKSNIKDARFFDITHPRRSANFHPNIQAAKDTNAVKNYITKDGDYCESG
Method: as §1

[4] = system: T4, Rep nickase domain of chickpea chlorotic dwarf virus
T4 sequence (residues 1-124 of Rep, tag left off): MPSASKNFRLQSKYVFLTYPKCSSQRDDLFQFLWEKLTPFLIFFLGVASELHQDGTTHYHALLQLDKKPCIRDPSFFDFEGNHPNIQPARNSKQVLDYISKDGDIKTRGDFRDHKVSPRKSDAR
Method: as §1

[5] = system: T5, Rep nickase domain of faba bean necrotic yellows virus
T5 sequence (residues 1-98 of Rep, tag left off): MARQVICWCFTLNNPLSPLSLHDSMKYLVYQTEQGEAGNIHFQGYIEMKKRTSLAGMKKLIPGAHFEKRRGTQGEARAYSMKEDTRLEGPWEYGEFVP
Method: as §1

[6] = system: T6, Rep nickase domain of maize striate mosaic virus
T6 sequence (residues 1-117 of Rep, tag left off): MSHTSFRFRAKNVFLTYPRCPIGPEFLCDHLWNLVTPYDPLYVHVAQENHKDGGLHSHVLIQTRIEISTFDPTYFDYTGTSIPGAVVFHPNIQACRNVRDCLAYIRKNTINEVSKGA
Method: as §1

[7] = system: T7, Rep nickase domain of porcine circovirus 2
T7 sequence (residues 2-116 of Rep, tag left off): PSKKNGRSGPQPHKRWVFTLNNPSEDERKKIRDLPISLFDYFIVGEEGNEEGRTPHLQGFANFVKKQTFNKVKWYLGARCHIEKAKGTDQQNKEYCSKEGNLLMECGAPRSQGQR
Method: as §1

[8] = system: T8, Rep nickase domain of tomato golden mosaic virus
T8 sequence (residues 1-124 of Rep, tag left off): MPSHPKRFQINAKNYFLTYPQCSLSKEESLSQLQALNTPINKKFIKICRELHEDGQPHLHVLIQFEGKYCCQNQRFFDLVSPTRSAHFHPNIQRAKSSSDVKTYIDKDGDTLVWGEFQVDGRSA
Method: as §1

[9] = system: T9, Rep nickase domain of tomato yellow leaf curl virus
T9 sequence (residues 1-136 of Rep, tag left off): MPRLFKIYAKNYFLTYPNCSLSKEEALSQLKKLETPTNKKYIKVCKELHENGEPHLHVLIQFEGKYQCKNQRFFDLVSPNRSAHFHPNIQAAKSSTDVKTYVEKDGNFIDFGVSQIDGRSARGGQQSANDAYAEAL
Method: as §1

[10] = system: T10, Rep nickase domain of wheat dwarf virus
T10 sequence (residues 1-137 of Rep, tag left off): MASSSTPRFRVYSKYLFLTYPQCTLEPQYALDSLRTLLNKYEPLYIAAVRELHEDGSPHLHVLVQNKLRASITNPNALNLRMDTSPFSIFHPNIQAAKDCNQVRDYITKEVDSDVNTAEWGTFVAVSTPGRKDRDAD
Method: as §1

Row | Sequence | uncleaved DNA left (log2) [1] | uncleaved DNA left (log2) [2] | uncleaved DNA left (log2) [3] | uncleaved DNA left (log2) [4] | uncleaved DNA left (log2) [5] | uncleaved DNA left (log2) [6] | uncleaved DNA left (log2) [7] | uncleaved DNA left (log2) [8] | uncleaved DNA left (log2) [9] | uncleaved DNA left (log2) [10]
1 | TTCGGCA | -0.0462 | 0.000826 | 0.00244 | -0.412 | 0.0444 | -0.786 | -0.168 | -0.0509 | 0.0411 | 0.0227
2 | AAACACA | -0.0544 | -0.16 | -0.38 | -2.43 | -0.0369 | -0.769 | -0.119 | -0.101 | -0.122 | -0.1
3 | GATTGAA | -0.281 | -0.124 | 0.0599 | 0.301 | -0.0164 | -0.129 | -1.2 | 0.132 | 0.131 | 0.0678
4 | GCGACTC | 0.0667 | 0.131 | 0.0377 | 0.677 | -0.0631 | 1.48 | 0.0327 | 0.00134 | -0.0473 | 0.0838
5 | GAGAGGC | 0.17 | 0.0958 | 0.452 | 0.995 | 0.264 | 0.704 | 0.251 | 0.203 | 0.168 | 0.205
6 | TCCAAAA | -0.00726 | -0.171 | 0.122 | -0.00815 | 0.0125 | -0.601 | 0.0115 | 0.00117 | -0.0291 | -0.104
7 | TAAGTGT | 0.0936 | -0.0539 | -3.02 | -2.11 | -0.027 | -0.131 | -0.0577 | -0.379 | -0.101 | -0.831
8 | CCGCCGC | 0.0862 | 0.0397 | -0.29 | -0.598 | 0.0297 | -0.539 | 0.159 | -0.0381 | -0.0347 | -0.233
9 | CAGACCG | 0.0381 | 0.101 | -0.313 | -0.315 | -0.0432 | -0.69 | 0.0811 | 0.0215 | -0.0295 | -0.0112
10 | TTCACTA | -0.066 | -0.0652 | 0.126 | -1.01 | 0.0416 | 0.233 | -0.144 | -0.0254 | -0.0286 | 0.044
11 | CATCAAT | 0.141 | 0.158 | 0.333 | 0.423 | 0.0957 | 0.298 | -0.136 | 0.024 | 0.14 | 0.204
12 | TTGATAA | 0.0799 | 0.0535 | 0.196 | 0.575 | 0.0799 | 0.84 | 0.0323 | 0.103 | 0.0838 | 0.0546
13 | ATACGAT | 0.166 | 0.046 | 0.138 | 0.399 | 0.0881 | 0.957 | 0.136 | -0.00145 | -0.0225 | 0.0366
14 | GCATATG | 0.0608 | 0.0211 | -0.376 | -0.209 | 0.0794 | -0.613 | 0.168 | 0.0784 | 0.137 | -0.121
15 | GTCTTCC | -0.0355 | 0.0396 | 0.314 | 0.787 | -0.0111 | 1.61 | 0.00189 | -0.0728 | -0.0131 | 0.0181
16 | CTGCAAC | -0.0697 | -0.115 | -0.332 | -1.12 | -0.125 | -1.04 | -0.29 | -0.221 | -0.157 | -0.121
17 | CGGCTTA | 0.0881 | 0.041 | 0.135 | 0.0286 | -0.0398 | 0.611 | 0.101 | 0.00105 | -0.0718 | 0.052
18 | GTATCAA | 0.0818 | 0.108 | 0.337 | 0.996 | -0.0113 | 1.73 | 0.0247 | 0.0865 | 0.0734 | 0.153
19 | GCTTAGG | 0.0288 | 0.138 | 0.294 | 1.2 | 0.111 | 1.06 | 0.162 | 0.127 | -0.0689 | 0.146
20 | AGGTAGT | -0.628 | -0.205 | -0.0894 | 0.348 | -0.27 | 0.541 | -3.3 | -0.0253 | -0.174 | -0.188
21 | AATCCGA | -0.105 | -0.0886 | -0.285 | -0.305 | -0.0481 | -1.02 | 0.126 | -0.113 | -0.131 | -0.0796
22 | CTAATCC | -0.0323 | 0.138 | 0.298 | 0.00393 | -0.085 | -0.445 | 0.0443 | -0.00495 | -0.0264 | 0.112
23 | GGTGTGT | 0.0522 | -0.105 | 0.352 | 0.846 | -0.0442 | 1.09 | -0.00388 | -0.143 | -0.108 | -0.0781
24 | GCCCCTC | -0.166 | 0.0382 | 0.155 | 0.332 | 0.00556 | 0.343 | -0.0793 | -0.0563 | -0.00521 | -0.0666
25 | ACACGTG | 0.0589 | -0.00607 | -0.596 | -0.0401 | 0.137 | -0.731 | 0.159 | 0.0904 | 0.0611 | 0.0779
26 | GTTAACA | 0.0843 | 0.029 | 0.271 | 0.773 | -0.143 | 1.82 | 0.0169 | 0.194 | 0.11 | 0.203
27 | ACTCAGG | -0.0358 | 0.0285 | -0.248 | -0.0754 | 0.102 | -0.892 | 0.18 | 0.0791 | -0.00792 | -0.0276
28 | ACTGTGG | 0.0214 | 0.0379 | -0.6 | -0.472 | 0.0191 | -1.11 | 0.11 | 0.0525 | 0.159 | -0.138
29 | TATTACC | -3.91 | -3.13 | -2.97 | -3.11 | -3.26 | -1.11 | -3.72 | -2.94 | -0.0714 | -3.24
